# Among all 420,000 compounds or so, about 50,000 (12%) were called active. The shares of active, inactive and inconclusive entries below differ from those in the screen. The call rests on the fitted dose curve; in most records, active means well fitted inhibition curve with a large enough effect; inconclusive means small, poorly fitted or top-dose-only effect; inactive means flat fitted curve, though single readings scatter. No potency is given beside an inconclusive call; the fits are too rough.
# Test: qHTS for Inhibitors of human tyrosyl-DNA phosphodiesterase 1 (TDP1): qHTS in cells in presence of CPT; further: nearly all actives have a fitted effect of over 55% in size
# Details: chicken DT40 Tdp1-/-;hTDP1 cells + 20 nM CPT, ATP luminescence, 48 h; activity change, negative = growth inhibition: at 46.2 µM (top of the series) unless noted
# Procedure, shortened: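 Cell growth measured by CellTiter-Glo luminescence after a minimum 48 h, 37 C compound exposure with 20 nM CPT in Tdp1-knockout DT40 cells stably expressing hTDP1, seeded 400/well; qHTS titration format.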
# On the % scale 0 is the no-effect control and ±100 the full control effect; potency means the concentration at half of the fitted maximal effect; tags describe the fitted curve by direction and shape.
Compound,Potency,"activity change, negative = growth inhibition"
O=C(Cn1cnc2c(NCc3ccccc3)ncnc21)NCc1ccccc1,active: 4.11 µM,
O=C(CC(=O)c1c(F)cccc1Cl)c1ccccc1O,"inconclusive [inhibitor, partial curve]",
COc1ccc(/C=C/C(=O)NC(C)(C)C)cc1S(=O)(=O)N1CCOCC1,,inactive: -13.2%
CCc1ccc(Nc2nnc(SCn3nnc4ccccc4c3=O)s2)cc1,"inconclusive [inhibitor, single point]",
Cc1ccc(N(Cc2ccccc2)C(=O)c2cccc(S(=O)(=O)N3CCOCC3)c2)cc1,"inconclusive [inhibitor, single point]",
CC(OC(=O)c1ccc(CN2CCCC2=O)cc1)C(=O)Nc1ccc(Cl)cc1 (centres undefined),"inconclusive [inhibitor, single point]",
CCOc1ccc(-c2ccc(/C=C3/C(=N)N4C(C)=CSC4=NC3=O)o2)c([N+](=O)[O-])c1,"inconclusive [inhibitor, single point]",
COc1ccc(CCNC(=O)c2nc(-c3ccc(Cl)cc3)n3c2CCCCC3)c(OC)c1,active: 10.3 µM,
O=C(N1CCN(c2ccc(F)cc2)CC1)C12CC3CC(CC(C3)C1)C2,"inconclusive [inhibitor, single point]",
c1ccc(CSc2ccc3nnc(-c4ccccn4)n3n2)cc1,"inconclusive [inhibitor, single point]",
COc1ccc(S(=O)(=O)N(C)c2ccc(C(=O)NCc3ccco3)cc2)cc1OC,,inactive: -18.1%
CCOC(=O)c1nnn(-c2nonc2-n2cccc2)c1-c1cccc([N+](=O)[O-])c1,,inactive: -14.4%
COc1ccc2c(c1)OC1=C(C(=O)CCC1)C2C1=C(O)CCCC1=O (centres undefined),,inactive: -11.6%
C/C(=N\NC(=S)Nc1ccccc1)C1Cc2ccccc2C(=O)O1 (centres undefined),"inconclusive [inhibitor, single point]",
COCCn1c(Sc2nc(C)cs2)nc2c1c(=O)[nH]c(=O)n2C,,inactive: 8.34%
COCC(C)NC(=O)/C=C/c1ccc(OC)cc1 (centres undefined),,inactive: 3.99%
O=C1NC[C@H](Cc2ccccc2)N(C[C@@H]2CCCN2C[C@H](Cc2ccccc2)N2C[C@H](Cc3ccc(O)cc3)N(CCc3ccccc3)C(=O)C2=O)C1=O,"inconclusive [inhibitor, single point]",
CS(=O)(=O)c1cccc(NC(=O)CSc2nnc3n2CCCCC3)c1,,inactive: 28.7%
O=C(N/N=C/c1cc([N+](=O)[O-])ccc1O)Nc1ccccc1,"inconclusive [inhibitor, single point]",
Nc1cccc2c1C(=O)N(C(=O)c1cccc(S(=O)(=O)N3CCCCCC3)c1)C2=O,,inactive: -14.3%
CC(C)(C)Cc1c(-c2ccc(C#N)cc2)nc2ccc(Cl)cn12,"inconclusive [inhibitor, single point]",
COC(=O)C[C@H]1c2cc(F)ccc2S(=O)(=O)N1Cc1ccccc1OC,"inconclusive [inhibitor, single point]",
O=C(N/N=C/c1cccc([N+](=O)[O-])c1)c1cc2ccccc2o1,"inconclusive [inhibitor, single point]",
CN(CC(=O)Nc1ccc(Cl)cc1)C(=O)CNC(=O)c1ccc2c(c1)OCO2,,inactive: 1.29%
COc1cc(S(=O)(=O)NCCc2c(C)[nH]c3ccccc23)c(C)cc1C,active: 18.4 µM,

Compound,Potency,"activity change, negative = growth inhibition"
CCOC(=O)N1CCC(NC(=O)c2cnn3c(C(F)(F)F)cc(-c4cccc(OC)c4)nc23)CC1,active: 13 µM,
O=C(COc1ccccc1Cc1ccccc1)Nc1cccc(S(=O)(=O)N2CCOCC2)c1,"inconclusive [inhibitor, single point]",
CCc1cccc(-n2c(=O)c3cccnc3n2CC(=O)Nc2c(C)cc(C)cc2C)c1,"inconclusive [inhibitor, single point]",
COc1ccc2c(c1)nc(N)n2Cc1ccccc1,"inconclusive [inhibitor, single point]",
COc1ccc(CCNc2ccc([N+](=O)[O-])cn2)cc1,"inconclusive [inhibitor, full curve, poor fit]",
Cc1cc(F)ccc1-c1cc(C(=O)NCc2cccc(C(F)(F)F)c2)[nH]n1,"inconclusive [inhibitor, single point]",
COc1ccc(S(=O)(=O)Nc2cc3c4c(c2)C(C)C(=O)N4CCC3)cc1OC (centres undefined),,inactive: -10.1%
COc1ccc2nc(N(Cc3cccnc3)C(=O)Cc3ccccc3)sc2c1,,inactive: -13.4%
O=C(CCNS(=O)(=O)c1ccccc1)NNC(=O)c1cccc(Cl)c1,,inactive: -2.75%
CCOC(=O)c1c(-c2ccccc2)nc2cc(C)ccn12,"inconclusive [inhibitor, single point]",
COc1ccccc1CNc1ncncc1-c1ccccc1CN(C)C,,inactive: -8.39%
COc1ccc(NC(=O)COC(=O)c2ccc(C)c(S(=O)(=O)N3CCCCC3)c2)cc1,"inconclusive [inhibitor, partial curve, poor fit]",
C[C@H]1CN([C@@H](C)CO)S(=O)(=O)c2ccc(-c3ccc(C#N)cc3)cc2O[C@H]1CN(C)C(=O)CN(C)C,,inactive: -3.07%
Fc1cccc(-c2nnn3c2nc(NC2CCCCC2)c2ccccc23)c1,,inconclusive: -30.8% [inhibitor]
C=CCN(CC=C)C(=O)c1cccc(S(=O)(=O)N2c3ccccc3CC2C)c1 (centres undefined),active: 16.4 µM,
CCNC(=S)/N=C(\N)Nc1nc(C)c2cc(C)ccc2n1,"inconclusive [inhibitor, single point]",
Cc1ccc(OCC(=O)N2CCCC(CO)(CCOc3ccccc3)C2)cc1 (centres undefined),,inactive: -10.6%
COc1ccccc1/C=c1\sc2nc(-c3ccccc3OC)nn2c1=O,"inconclusive [inhibitor, single point]",
CCCCc1cc(=O)oc2cc(OCc3nn[nH]n3)ccc12,,inactive: 0.717%
CC(=O)Nc1ccc(C(=O)COC(=O)c2cccs2)c(F)c1,,inactive: 7.06%
Brc1ccc(-c2csc(-c3c[nH]c4ccccc34)n2)cc1,"inconclusive [inhibitor, partial curve]",
CC(=O)C1CCC2C3CC=C4CC(SC(=N)N)CCC4(C)C3CCC12C (centres undefined),active: 13 µM,
COc1ccc(CCNC(=O)Cc2cccc(C(F)(F)F)c2)cc1OC,,inactive: -14.7%
Cc1nnc(C)c2c(C)n(-c3ccc(Cl)c(N)c3)c(C)c12,"inconclusive [inhibitor, single point]",
CC(C)Oc1ccc(S(=O)(=O)N2CCOCC2)cc1NC(=O)c1cccc(S(=O)(=O)N2CCCC2)c1,,inactive: -12%

Compound,Potency,"activity change, negative = growth inhibition"
Cc1onc(C(=O)NN)c1-c1csc(COc2ccc(Cl)cc2)n1,active: 20.6 µM,
CC1CCN(CC2CCN(C(=O)Nc3ccc(Br)cc3F)CC2)CC1,,inactive: -9.52%
COc1cc(C(=O)OCC(=O)c2cc(C)n(C)c2C)cc(OC)c1OC,active: 25.9 µM,
O=S(=O)([N-]c1nc2ccccc2nc1-[n+]1ccc(-c2ccncc2)cc1)c1ccccc1,,inactive: 10.2%
N#CC1=C(N)NC(SCC(=O)O)=C(C#N)C12CCCC2,,inactive: -16.7%
COc1ccccc1N(C)S(=O)(=O)c1ccc(Cl)c(C(=O)OCc2c(C)noc2C)c1,"inconclusive [inhibitor, single point]",
CCN(CC)CCCNC(=O)c1nn2c(C(F)(F)F)cc(-c3ccccc3)nc2c1Cl,"inconclusive [inhibitor, single point]",
O=C(C1CCN(S(=O)(=O)Cc2ccccc2)CC1)N1CCN(c2cccc(C(F)(F)F)c2)CC1,,inactive: -20.2%
O=C(CC1SC(N2CCCCC2)=NC1=O)Nc1cccc(C(=O)N2CCCC(C(F)(F)F)C2)c1 (centres undefined),"inconclusive [inhibitor, single point]",
C[C@]12C(=O)N(c3ccc(Br)cc3)C(=O)N1[C@H]1c3ccccc3OC[C@@H]1[C@H]2c1ccccc1,,inactive: -18%
O=C(O)c1ccc(N/N=C/C(Br)=C/c2ccccc2)cc1,active: 5.8 µM,
COC(=O)C1=C(C)NC(C)=C(C(=O)OC)C1c1ccccc1OCc1c(C)no[n+]1[O-],"inconclusive [inhibitor, single point]",
COc1ccc(/C=N/NC(=O)c2cccnc2)cc1COc1ccc([N+](=O)[O-])cc1,active: 2.59 µM,
COc1ccc(Cl)cc1NC(=S)NCCC(c1ccccc1)c1ccccc1,active: 23.1 µM,
CCCCC1=NN(C(=O)c2cccnc2)C(O)(C(F)(F)F)C1 (centres undefined),active: 1.46 µM,
CC1=C(C(=O)c2ccccc2)C(c2ccc(N3CCOCC3)cc2)NC(=O)N1 (centres undefined),"inconclusive [inhibitor, single point]",
CCN(C(=O)COC(=O)c1ccc(C=O)cc1)c1c(N)n(Cc2ccccc2)c(=O)[nH]c1=O,,inactive: 9.75%
COc1cccc(-n2nc3c(-n4ncc(C#N)c4N)nnc(C)c3c2C)c1,"inconclusive [inhibitor, single point]",
CNc1ccc([N+](=O)[O-])cc1C(=O)O,,inactive: 5.24%
COc1ccc(Cc2cnc(N)nc2N)cc1OC,"inconclusive [inhibitor, single point]",
Cc1ccc(Cl)cc1-n1ncc2c(N3CCN(Cc4ccccc4)CC3)ncnc21,active: 2.59 µM,
CCCCCN(C(=O)CCC(=O)OCC(=O)c1ccc(C(C)CC)cc1)c1c(N)n(CCCC)c(=O)[nH]c1=O (centres undefined),"inconclusive [inhibitor, single point]",
NC(=O)C1CCN(c2oc(-c3cccs3)nc2S(=O)(=O)c2ccc(Cl)cc2)CC1,,inactive: 11%
Cc1cccc(NS(=O)(=O)c2ccc(C)c(C(=O)NCC(c3ccco3)N3CCCCC3)c2)c1 (centres undefined),active: 20.6 µM,

# From PubChem BioAssay AID686979 (National Center for Advancing Translational Sciences (NCATS), 2013)
